Laboratory results: PubChem BioAssay AID1671194 (National Center for Advancing Translational Sciences (NCATS), 2021)
Out of some 140,000 compounds screened, about 240 (0.17%) were called active. This list was built around the results that the source calls inconclusive (neither active nor inactive); the mix of calls is not that of the screen. The call rests on the fitted dose curve; in most records, active means well fitted inhibition curve with a large enough effect; inconclusive means small, poorly fitted or top-dose-only effect; inactive means no such curve, though single readings can be large or run the other way. A potency beside an inconclusive call is a rough fit, not a confirmed value.

Experiment: Primary qHTS assay for inhibitors of alpha-synuclein gene (SNCA) expression; further: nearly all actives have a fitted effect of over 45% in size
Conditions: HEK-293 SNCA-luciferase knock-in, luminescence, 24 h; series mostly up to 57.2 µM
Potency means the concentration at half of the fitted maximal effect; tags describe the fitted curve by direction and shape.

| Structure (SMILES) | Potency |
| --- | --- |
| O=C(CC1CCOCC1)NCc1ccccc1F | inconclusive: 1.58 µM [inhibitor, full curve, poor fit] |
| COc1cc(F)ccc1-c1cc(C(=O)NCc2cccnc2)c2c(c1)ncn2C | inactive |
| COc1ccc(-c2nnc(C[C@@H]3C[C@@H](C(C)C)[C@H](CN(C)CCc4ccccn4)C=C3C)o2)cc1 | inconclusive: 20 µM [inhibitor, single point] |
| CC(C)(C)CC(=O)N1CCC(N2CCCC(C(=O)NCc3ccccc3)C2)CC1 (configuration not stated) | inconclusive: 39.8 µM [inhibitor, partial curve, poor fit] |
| Cc1ccc(S(=O)(=O)c2c(Nc3ccccc3)sc(C(=O)c3ccc4c(c3)OCO4)c2N)cc1 | inconclusive: 3.98 µM [inhibitor, full curve, poor fit] |
| COc1ccc(C(=O)N[C@H]2C[C@@H](Cc3cc(COc4ccccc4)on3)C2(C)C)cc1 | inactive |
| O=C(C=Cc1ccc(/C=C/C(=O)Nc2ccc(C3=NCCN3)cc2)cc1)Nc1ccc(C2=NCCN2)cc1 | inconclusive: 0.136 µM [inhibitor, single point] |
| COC[C@@H]1CN(Cc2cn[nH]c2-c2ccccc2)C[C@H]1c1nc(C)no1 | inconclusive: 5.62 µM [inhibitor, single point] |
| CCCOCCCNC(=O)c1c(C)noc1-c1ccccc1Cl | inconclusive: 3.16 µM [inhibitor, partial curve, poor fit] |
| CC(C)CNc1ccc2c(n1)C(C)(C(=O)NC1CC1)CN(Cc1ccccc1)C2 (configuration not stated) | inconclusive: 1.26 µM [inhibitor, full curve, poor fit] |
| COc1ncccc1CN(Cc1cccnc1OC)C[C@H]1COCc2nc3ccc(C)cc3n21 | inconclusive: 31.6 µM [inhibitor, single point] |
| COc1ccc(S(=O)(=O)N2CCC(c3nnc(-c4ccccc4C)o3)CC2)c(OC)c1 | inconclusive: 2 µM [inhibitor, full curve] |
| COC(=O)CNC(=O)N1CCc2c(nc3cc(-c4ccccc4Cl)[nH]n3c2=O)C1 | inconclusive: 8.91 µM [inhibitor, full curve, poor fit] |
| CNc1cc(C2CC(NC(=O)CCn3c(C)cccc3=O)C2)nc(N)n1 (configuration not stated) | inconclusive: 1.12 µM [inhibitor, partial curve, poor fit] |
| Cc1ccc(C(N)=O)cc1Nc1nccc(-c2cn(C(C)C)c3cnccc23)n1 | inconclusive: 1.71 µM [inhibitor, full curve] |
| O=C(CN1C(=O)NC(c2ccc(Cl)cc2)C2=C1COC2=O)Nc1ccc2c(c1)CCC2 (configuration not stated) | inconclusive: 17.8 µM [inhibitor, partial curve, poor fit] |
| C=CCNC(=O)C[C@@H]1CCN(C(=O)c2ccnc(Cl)c2)C[C@@H]1CC | inconclusive: 31.6 µM [inhibitor, partial curve, poor fit] |
| CCC(=O)Nc1ccc2nnc(-c3ccc(C(=O)Nc4ccc5c(c4)OCCO5)cc3)n2c1 | inconclusive: 39.8 µM [inhibitor, single point] |
| COc1ccc(SCCNC(=O)C2NCCc3[nH]cnc32)cc1 (configuration not stated) | inconclusive: 39.8 µM [inhibitor, single point] |
| CN(Cc1cc(C2CC2)n[nH]1)c1nccc(-c2cccnc2)n1 | inactive |
| COc1cccc(CC(=O)N2CCn3c(nnc3[C@@H]3C[C@@H](O)CN3C(C)C)C2)c1 | inconclusive: 39.8 µM [inhibitor, single point] |

| Structure (SMILES) | Potency |
| --- | --- |
| CCCOc1nccnc1NC1CCN(C(=O)c2ccncc2)CC1 | inactive |
| CC(C)Oc1ccc(CNC(=O)C2CCN(C(=O)N3CCOc4ccc(Cl)cc43)CC2)cc1 | inconclusive: 4.47 µM [inhibitor, single point] |
| CN(C)C(=O)c1ccc2c(c1)n(Cc1cccc(F)c1)c(=O)c1ccnn12 | inactive |
| Cc1nn(C(=O)CCC(=O)N2CCC(Cc3nncn3CC3CC3)CC2)c2ccccc12 | inconclusive: 15.8 µM [inhibitor, single point] |
| O=C(c1ccc(C(F)(F)F)cc1)N1CCC2(Cc3ccccc3NC2=O)C1 (configuration not stated) | inactive |
| O=C(C1CCCN1C(=O)Nc1ccccc1)N1CCC(N2Cc3ccccc3C2=O)CC1 (configuration not stated) | inactive |
| O=C(Nc1ccc(F)c(Cl)c1)c1cnc(-c2ccccc2)nc1-c1ccncc1 | inconclusive: 17.8 µM [inhibitor, single point] |
| CC1=C[C@@H](CNC(=O)COc2ccccc2)[C@H](C(C)C)C[C@H]1Cc1nc2ccncc2[nH]1 | inconclusive: 31.6 µM [inhibitor, partial curve, poor fit] |
| Cn1c(CNC(=O)c2cc[nH]c2C2CCCNC2)nc2ccccc21 (configuration not stated) | inactive |
| Cc1cccc(-n2ncc3c2CCCC3NC(=O)C2(C)CCNCC2)c1C (configuration not stated) | inactive |
| CCCC1c2nccn2CCCN1C(=O)c1ccc(OC)nc1OC (configuration not stated) | inactive |
| COc1ccc(CN2CCC([C@@H]3CNC[C@H]3CO)CC2)c(Cl)c1OC | inconclusive: 39.8 µM [inhibitor, single point] |
| FC(F)(F)c1cccc(C2=NOC3(CCN(Cc4ccccc4)CC3)C2)c1 | inactive |
| CCN1C(=O)CCN(Cc2ccc(C#N)cc2)CC12CCOCC2 | inactive |
| CCOc1ccc(NC(=O)Cn2c(=O)n(Cc3ccccc3)c(=O)c3c4c(sc32)CN(C(C)=O)CC4)cc1 | inconclusive: 15.8 µM [inhibitor, partial curve, poor fit] |
| CC(C)(C)c1ccc(S(=O)(=O)N2CCC(c3ccncc3)CC2)cc1 | inconclusive: 31.6 µM [inhibitor, single point] |
| O=C(Nc1ccccn1)C1c2ccccc2C(=O)N(Cc2ccccc2)C12CCCC2 (configuration not stated) | inactive |
| COc1ccc2nc(NC(=O)c3nc(SCc4cccc(C)c4)ncc3Cl)sc2c1 | inconclusive: 7.08 µM [inhibitor, single point] |
| CC(=O)N1CCCC(C(=O)N2CCC(c3nc4ncccc4[nH]3)CC2)C1 (configuration not stated) | inactive |
| O=C(NCc1nnc2ccc(-c3ccc(F)cc3)nn12)c1ccoc1 | inactive |
| Cc1ccc(C)c(-c2cc3c(=O)n(CCNC(=O)c4ccc(N(C)C)cc4)ccn3n2)c1 | inconclusive: 2.51 µM [inhibitor, full curve, poor fit] |
